PubChem BioAssay
Inconclusive means that the source gave no clear call. Such entries were picked first, then a sample of the others. Activity calls are given as the source filed them.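 The calls were made as follows, unless noted: active = RAM network inhibition above 8.4% in each of two replicates, 3 SD over the compound average; inconclusive = above 8.4% inhibition in only one replicate; inactive = 8.4% inhibition or less in each replicate.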

Columns and labels:
[1] = viability of HCT116 without oncogenic beta-catenin – human colon tumor cells, pilot screen (AID 823;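 active = cell viability at or below a set limit in both duplicate runs, the limit being the all-compound median minus 4 SD, cut at about 23% in these data, passing the limit was not always enough; inconclusive = no clear call, values can overlap the other calls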;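 also: 0% = wells killed by 20 µM Hyamine and 100% = untreated DMSO cell wells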); settings: HCT116 beta-catenin knockout viability, CellTiter-Glo, 60 h; at 10 µM; hits give low values
[2] = RAM signaling pathway blockade in yeast – S. cerevisiae, Pdr1DBD-CYC8 efflux-inhibited sensitized strain, primary screen (AID 1298);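 also: 0% = DMSO untreated cells without growth and 100% = 10 µM 1-NA-PP1 full growth; higher means more yeast growth rescued from 5-FOA killing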; settings: S. cerevisiae cbk1-as DSE1-URA3 strain, 5-FOA growth OD615, 2 d; at 50 µM; hits give high values
[3] = doxorubicin toxicity protection in MRP-1 cells – H69AR cells, CellTiter-Glo, duplicate, MRP-1 activator project, pilot screen (AID 807;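 active = viability increase at or above a cutoff of the median across tested compounds plus 3 SD, cut at about 8.5% in these data, passing the limit was not always enough; inconclusive = some gains above the cutoff, reason not given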;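 also: compound pretreatment 18-22 h then 72 h combined with doxorubicin; 0% = doxorubicin alone and 100% = vehicle without doxorubicin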); settings: H69AR viability with doxorubicin, CellTiter-Glo luminescence; at 10 µM; hits give high values
[4] = RAM pathway blockade in budding yeast – dse1pr::URA3 reporter, 5-FOA selection, pilot screen (AID 869;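 active = inhibition over a set limit, the all-compound mean plus 3 SD, in both replicate runs; inconclusive = over that limit in just one replicate run; inactive = at or under that limit in both runs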;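 also: 0% = DMSO wells with no growth and 100% = 10 µM 1-NA-PP1 with full growth; RAM network block rescues cells from 5-FOA so hits raise OD615 growth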); settings: S. cerevisiae dse1pr::URA3 5-FOA growth, OD615, 2 d; at 10 µM; hits give high values; strain carries analog-sensitive mutant Cbk1 kinase
[5] = viability of PTEN-null HCT116 cells – cell-based, HCT116 clonal line, CellTiter-Glo, pilot screen (AID 824;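 active = viability at or below 27.92% in each of two runs, the all-compound median minus 4 SD; inconclusive = no clear call, values can overlap the other calls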;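 also: 0% = 20 µM Hyamine control and 100% = vehicle cell control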); settings: HCT116 PTEN-deleted viability, 60 h, at 10 µM, hits give low values

CCC(=O)N1CCc2cc(Br)cc(S(=O)(=O)NCc3ccco3)c21
viability [1]: inconclusive: 86.2% | RAM network inhibition [2]: inactive: 1.85%

Brc1ccc2ncnc(NCc3ccco3)c2c1
viability [1]: inconclusive: 25.8% | RAM network inhibition [2]: inactive: 4.76%

Cc1cccc(N2CCN(C(=O)c3cc4c(C)nc5ccccc5c4o3)CC2)c1C
viability [1]: inactive: 71.7% | RAM network inhibition [2]: inconclusive: 10.9%

Cc1noc(/C=C/N(C)C)c1S(=O)(=O)N1CCCC(C(=O)NCc2ccc(F)cc2)C1 (stereo unspecified)
viability increase [3]: inconclusive: 5.15% | inhibition [4]: inconclusive: 3.72% | RAM network inhibition [2]: inconclusive: 15.7%

O=C(O)CC1C(=O)NCCN1C/C=C/c1ccccc1 (stereo unspecified)
viability [1]: inactive: 105% | RAM network inhibition [2]: inconclusive: 6.95%

Cc1cc2ccccc2n1CCNC(=O)COc1ccccc1
viability [1]: inactive: 99.2% | RAM network inhibition [2]: inactive: 8.38%

CN(Cc1ccccc1)c1oc(COc2ccccc2F)nc1C#N
viability [1]: inactive: 80.2% | RAM network inhibition [2]: inconclusive: 16%

NS(=O)(=O)c1ccc(NC(=O)COC(=O)CCNC(=O)NC23CC4CC(CC(C4)C2)C3)cc1
viability [1]: inconclusive: 105% | RAM network inhibition [2]: inactive: 3.28%

C=CCn1c(SCc2cc(=O)n3ccsc3n2)nc2scc(C3CC3)c2c1=O
viability [1]: inconclusive: 90.3% | RAM network inhibition [2]: inconclusive: 10.9%

COc1cc2c(cc1OC)C(c1ccccc1)N(C(=O)c1ccco1)CC2 (stereo unspecified)
viability [1]: inactive: 68.4% | RAM network inhibition [2]: inconclusive: 16.3%

N#CCSc1n[nH]c2nc3c(c(=O)n12)C1(CCCC1)Cc1ccccc1-3
viability [5]: inconclusive: 101% | RAM network inhibition [2]: inconclusive: 13.5%

COc1ccc(N2CCN(C(=O)CCS(=O)(=O)c3cccc4nsnc34)CC2)cc1
viability [5]: inactive: 96.9% | RAM network inhibition [2]: inconclusive: 9.57%

COC(=O)c1c(-c2ccc(F)cc2)csc1NC(=O)c1ccco1
viability [5]: inconclusive: 76.9% | RAM network inhibition [2]: inconclusive: 13.9%

CCOc1ccccc1C(=O)Nc1ccc2nc(N3CCN(c4ncccn4)CC3)cc(C)c2c1
viability [1]: active: 4.33% | viability [5]: active: 2.14% | inhibition [4]: inconclusive: 4.27% | RAM network inhibition [2]: inconclusive: 7.55%

Clc1nc2sccn2c1/C=N/n1cnc2ccccc21
viability [5]: inconclusive: 86.4% | RAM network inhibition [2]: inactive: 2.34%

COc1ccc(C(=O)/C=C/Nc2cc(C)on2)cc1
viability [1]: inconclusive: 90.4% | viability [5]: inactive: 97% | inhibition [4]: inconclusive: 5.03% | RAM network inhibition [2]: inconclusive: 16.6%

N#Cc1c(NC(=O)COC(=O)C2CC3C=CC2C3)oc(-c2ccccc2)c1-c1ccccc1 (stereo unspecified)
viability [5]: inconclusive: 93.8% | RAM network inhibition [2]: inconclusive: 13.2%

O=C(CCCCn1c(=O)[nH]c2ccsc2c1=O)NCC1CCCO1 (stereo unspecified)
viability [5]: inconclusive: 97.4% | RAM network inhibition [2]: inconclusive: 11.6%

COc1cc2c(cc1OC)C(C)N(C(=O)c1cc3ccccc3o1)CC2 (stereo unspecified)
viability [5]: inactive: 42.7% | RAM network inhibition [2]: inconclusive: 36.3%

O=C(Cn1cc2c(n1)CCCC2)NCc1ccccn1
viability [1]: inactive: 104% | viability [5]: inactive: 106% | RAM network inhibition [2]: inconclusive: 11%

CCOc1ccc(-c2cc(CCCC(=O)Nc3cccc(OC)c3)no2)cc1
viability [1]: inconclusive: 21.7% | viability [5]: inconclusive: 28.9% | RAM network inhibition [2]: inactive: 0.05%

CCCCC(NC(C)=O)c1nc2ccccc2n1CCCC (stereo unspecified)
viability [5]: inconclusive: 94% | RAM network inhibition [2]: inactive: 4.56%

CC(C)n1c(C(=O)OCC(=O)NCc2ccc3c(c2)OCO3)cc2sccc21
viability [5]: inconclusive: 30.4% | RAM network inhibition [2]: inconclusive: 12.7%

Cc1sc2nc(NCCO)[nH]c(=O)c2c1C
viability [5]: inactive: 97.2% | RAM network inhibition [2]: inactive: -1.79%

CCn1c(SCC(=O)Nc2cccc(C)c2)nc2c(c1=O)SC(C)C2 (stereo unspecified)
viability [1]: inactive: 95.1% | viability [5]: inactive: 88.9% | RAM network inhibition [2]: inactive: 10.2%

COc1ccc(NS(=O)(=O)c2cccc(-c3nnc4n3CCCCC4)c2)cc1
viability [5]: inconclusive: 93% | RAM network inhibition [2]: inactive: 1.97%

COc1ccc(CNc2oc(COc3ccccc3)nc2C#N)cc1
viability [5]: inconclusive: 80.9% | RAM network inhibition [2]: inactive: 2.19%

O=C(O)CC1C(=O)NCCN1Cc1ccc(F)c(F)c1 (stereo unspecified)
viability [5]: inactive: 88.2% | RAM network inhibition [2]: inactive: -0.21%

CCO/C=N/c1c(C#N)c(CC#N)nn1-c1ccccc1
viability [1]: inactive: 94.6% | viability [5]: inconclusive: 96.4% | RAM network inhibition [2]: inactive: 1.41%

COc1cc(C2C(C(=O)c3ccco3)=C(O)C(=O)N2CCc2ccccc2)ccc1O (stereo unspecified)
viability [5]: inconclusive: 92.6% | RAM network inhibition [2]: inactive: -0.31%

CCc1ccc(N2CC(C(=O)OCC(=O)NC3CCS(=O)(=O)C3)CC2=O)cc1 (stereo unspecified)
viability [5]: inconclusive: 109% | RAM network inhibition [2]: inactive: 3.33%
